# Experimental data: PubChem BioAssay AID1362 (SRMLSC, 2008)
# The other results are listed elsewhere or left out. The main result of the screen is listed elsewhere. These columns were measured beside it and carry no call. Compounds called inactive in the main read-out are mostly missing here.
# Assay: growth inhibition of WT strain, primary screen, mitochondrial fusion inhibitor project, WT and mutant strains, chemical genetic (AID 1362); also: tested in S. cerevisiae
# Details: mitochondrial fusion phenotypic screen, at 10 µM
row,Structure (SMILES),inhibition
1,Cc1ccc(-n2c(N)c(C#N)c(-c3ccccc3)c(C#N)c2=O)cc1,-4.45%
2,COc1ccccc1-n1c(=O)oc2ccc(Cl)cc2c1=O,75%
3,Cc1onc(-c2ccccc2Cl)c1C(=O)Nc1nnc(-c2ccc(Cl)cc2Cl)s1,33.1%
4,Cc1cc(Nc2ccccc2)nc2cc(O)ccc12,56.9%
5,CC(C)c1cc(C(N)=O)c(NC(=O)c2cccc(COc3ccc(Cl)cc3)c2)s1,19.8%
6,Cc1cccc(-c2nnc3sc(-c4ccccc4C)nn23)c1,40.1%
7,COC(=O)Cc1ccc(NC(=S)NCCSc2ccc(C)cc2)cc1,33.1%
8,COc1ccccc1NC(=S)N(Cc1cccs1)C1CCCC1,42%
9,O=C(c1ccc2[nH]c3c(c2c1)CCCC3)N1CCN(c2ccc(F)cc2)CC1,49.9%
10,COc1ccc(Sc2cc(C(F)(F)F)nc(-c3ccccn3)n2)cc1,56.3%
11,CCCC(C)NC(=S)Nc1cc(C)cc(C)c1 (stereo not given),69.6%
12,CC(C)C(=O)NC(=S)Nc1ccc(S(=O)(=O)N(C)Cc2ccccc2)cc1,29.9%
13,Cc1ccc2sc(N(CCCN(C)C)C(=O)CN3C(=O)c4ccccc4C3=O)nc2c1C,87.7%
14,COc1ccc(C2C=C(C34CC5CC(CC(C5)C3)C4)NC(=S)N2)cc1 (stereo not given),42.8%
15,CCc1nn(C(C)C(=O)N2CCN(Cc3ccccc3)CC2)c(=O)c2cc3occc3n12 (stereo not given),3.04%
16,Cc1nonc1C1CCCN1Cc1cn[nH]c1-c1ccc(-c2ccccc2)cc1 (stereo not given),26.7%
17,Cc1oc(-c2ccccc2)[n+]([O-])c1C,-3.32%
18,Cc1nc2c(-c3ccc(F)cc3)c(C)nn2c(C)c1CCC(=O)N1CCC(Cc2ccccc2)CC1,22.4%
19,COc1cc2c(cc1NC(=O)C(C)NCc1ccccc1)oc1ccccc12 (stereo not given),32.7%
20,Cc1cc(C)nc(-n2nc(C)cc2Nc2ccccc2)n1,71.3%
21,Fc1ccc(-c2csc3[n+]2CCS3)cc1,47.4%
22,Cc1cccc(NCc2nc3ccccc3n2Cc2ccccc2)c1,57.6%
23,Clc1ccc(C2=NNC(=NCc3ccc4c(c3)OCO4)SC2)cc1,1.65%
24,Cc1ccc2nc(-c3ccccc3)c(CN3CCN(c4ccccc4F)CC3)n2c1,16%

row,Structure (SMILES),inhibition
1,COC(=O)C(Nc1ccccc1Cl)(c1cc(C)c(O)c(C)c1)C(F)(F)F (stereo not given),81%
2,Cc1ccc(NC2(c3nnnn3-c3c(C)cccc3C)CCCCC2)cc1,48.1%
3,COc1ccc(S(=O)(=O)Oc2ccc3ccccc3c2)cc1,23.8%
4,O=S(=O)(Nc1ccc(O)c(Sc2nc3ccccc3s2)c1)c1cccc2ccccc12,14.5%
5,Cc1ccc(Cn2c(Cc3ccccc3)nc3ccccc32)cc1,60.2%
6,Cc1ccc(N=Nc2c(N)[nH]n3c(=O)cc(-c4ccccc4)nc23)cc1,21%
7,Clc1ccc(-c2n[nH]c3c2CCC3)c(Cl)c1,58.9%
8,COc1ccc(-c2csc(Nc3ccccc3)n2)cc1,63.9%
9,Cc1ccc2oc(=O)n(CCCOc3ccccc3C)c2c1,15.7%
10,CCc1cc2c(=O)c(-c3cscn3)coc2cc1O,-1.18%
11,CCC(C(=O)OCC(=O)Nc1cc(Cl)cc(Cl)c1)c1ccccc1 (stereo not given),40.5%
12,CCCCCCCCCCCCCCCC[n+]1ccc(/C=N/O)cc1,96.9%
13,CCOc1ccc2c(c1)OC(c1ccc(C)cc1)(C(F)(F)F)NC2=O (stereo not given),33%
14,COCCn1c(=S)[nH]c2cc(C(=O)N3CCc4ccccc43)ccc2c1=O,18.8%
15,COCC(=O)Nc1nnc(-c2ccc(C(C)(C)C)cc2)s1,57.9%
16,CN(C)C(=O)CSc1nnc(CCCCCNC(=O)OC(C)(C)C)o1,-2.8%
17,Cc1cccc2sc(N(CCCN(C)C)C(=O)c3sc4ccccc4c3Cl)nc12,86%
18,Cc1ccc(C(C#N)c2ccc3c(C(F)(F)F)cc(C(F)(F)F)nc3n2)cc1 (stereo not given),34.7%
19,CC1CCCN(C(=O)Cc2cn(Cc3cccc(Cl)c3)c3ccccc23)C1 (stereo not given),27.1%
20,Oc1ccccc1-c1nc(/C=C/c2ccccc2)nn1-c1ccccc1,-5.99%
21,CC(=O)Nc1ccccc1/C=C/c1ccc2c(C)cc(C)c(O)c2n1,73.4%
22,C/C(=N\O)c1ccc2c3c([nH]c2c1)CCCC3,-0.82%
23,CCN(CC(=O)Nc1c(C(=O)OC)[nH]c2ccc(Cl)cc12)c1ccc2c(c1)OCO2,42.7%
24,O=C(c1cc2ccccc2o1)N(C1CC1)C1(C(=O)Nc2ccccc2)CCCC1,42.3%

row,Structure (SMILES),inhibition
1,COc1ccc(C2c3sc(=O)[nH]c3SC3C4CCC(C4)C23)cc1 (stereo not given),34.8%
2,CC(=O)N1CCC(O)(c2cccc(C(F)(F)F)c2)CC1,6.45%
3,Cc1cc(OCc2cccc(Cl)c2)c(C)cc1CN1CCOCC1,69.1%
4,O=C1Nc2ccc(Cl)cc2C12Nc1ccccc1-c1nnc(SCc3ccccc3F)nc1O2 (stereo not given),18.3%
5,O=C(Nc1ccc(N2CCCC2)c(Cl)c1)c1ccc([N+](=O)[O-])o1,58%
6,CC1CCCCN1c1nc(-c2ccncc2)nc2ccccc12 (stereo not given),44.9%
7,CCn1c(Cn2nnc(-c3ccccc3)n2)nnc1SCc1ccc(Cl)c(Cl)c1,53.1%
8,C=C(C)CNC(=S)N/N=C1\CCCCc2ccccc21,55.3%
9,Clc1ccc(C(c2nnnn2C2CCCCC2)N(Cc2cccnc2)Cc2ccco2)cc1 (stereo not given),2.87%
10,CNC(=S)N/N=C/c1cn(Cc2c(F)cccc2Cl)c2ccccc12,54.9%
11,O=C(c1ccccc1Cl)N1N=C(c2ccc(Br)cc2)CC1c1nc2ccccc2[nH]1 (stereo not given),65.2%
12,O=C(NC1=NCCS1)c1cccc2ccccc12,79.8%
13,COc1cccc(Nc2nc(NCCO)c3ccccc3n2)c1,54.9%
14,N#Cc1nc(COc2ccc(-c3ccccc3)cc2)oc1NCCCN1CCOCC1,58.5%
15,OC(CNCCC1C=Nc2ccccc21)Cn1c2ccc(Cl)cc2c2cc(Cl)ccc21 (stereo not given),97%
16,CS(=O)(=O)N1CCc2cc(C(=O)N3CCOCC3)ccc21,8.53%
17,Cc1cccc(NC(=S)N=Nc2c(O)n(CN3CCOCC3)c3ccccc23)c1C,43.6%
18,O=C(CN1CCN(c2ccccc2)CC1)Nc1ccc(Oc2ccccc2)cc1,36.1%
19,O=C(Nc1nc(SCc2ccc(F)cc2)ns1)c1ccco1,52.1%
20,Cc1ccc(C(=O)NNC(=S)NC(=O)COc2ccccc2)cc1,73.2%
21,Cc1sc2cc3c(c(C(=O)c4ccccc4)[n+]2c1C)-c1cccc2cccc-3c12,65.7%
22,Cc1oc(-c2cccc3ccccc23)nc1CN1CCN(c2ncnc3ccccc23)CC1,34.3%
